The subject of the data set is ATP. In words: switch fluorescence ratio, 500 uM ATP over buffer (Cy3 cluster intensity, sum of 5 cycles each) (fold (ratio)); higher = stronger signal-on switching upon ATP binding; sequences stand for … in TCGTCGGCAGCGTCAGATGTGTATAAGAGACAGTTTTTTTTTTTTTTTTTTTTTTTTT…TC. The note with it: aptamer strand: ATP DNA aptamer (quencher-CACCTGGGGGAGTATTGCGGAGGAAGG + anchor), 100 nM annealed; ATP concentration: 500 uM; one replicate. The gist of the method: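 Five buffer/ATP imaging cycles were run on Cy3-labelled switching-strand clusters on a modified Illumina MiSeq flow-cell, with NaOH stripping and re-annealing between cycles. In each cycle, clusters annealed to 100 nM quencher-labelled ATP aptamer were imaged in selection buffer, then after 15 min with 500 uM ATP at 22 °C. Per cluster, the fluorescence ratio is summed target-cycle over summed buffer-cycle Cy3 intensity, averaged per switch-domain sequence. Only clusters within 100-1000 RFU were kept.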

Values marked as one replicate rest on one cluster of the flow cell; about a third of the high ones do not repeat.
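Also: ATP exposure 15 min at 22 °C before imaging.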

For the sequence GAGAAATCGT, the switch fluorescence ratio was 1.02. As to TCATTTTGCT, the switch fluorescence ratio is 1. Under TGTTTGATA stands 0.952; under CAATCCGAAC, 1.26. In the case of CACTAGTCGG, the switch fluorescence ratio was 0.99. Take TCGAATTCAT: the switch fluorescence ratio is 0.986. As for TCAATCGGGG, the switch fluorescence ratio is 1.02. On to ACGTTACCTA, for which the switch fluorescence ratio stood at 1.45.

Take GCCGATTAGT: the switch fluorescence ratio was determined as 0.977. Turning to TGGCGGGGTG, the switch fluorescence ratio came to 1.05. With CATCCACTCG, the switch fluorescence ratio came out at 1.08.

As to AAGGATACCA, the switch fluorescence ratio amounted to 1.02.

With TACGACCGCT, the switch fluorescence ratio is 1.37. As for TTAATCTGTG, the switch fluorescence ratio amounted to 1.01.

Take GCATCGGGCA: the switch fluorescence ratio is 1.03.

On to AGGGTTCAGA, for which the switch fluorescence ratio is 1.01. In the case of CTACGTTAT, the switch fluorescence ratio came out at 1.44. Regarding CTTCGGGTCC, the switch fluorescence ratio came to 1.02.

As to GGCACTCCAC, the switch fluorescence ratio stood at 1.12. Take ATTCGCGGGA: the switch fluorescence ratio is 1.02. Under TTTGAGCAAT stands 4.74; under AGCTTAACA, 1; under TAGAGATCA, 1.01. Turning to ACATCCAGTA, the switch fluorescence ratio was 0.958. Consider CATGCATTCC, for which the switch fluorescence ratio amounted to 1.68. For TCGTGAACAC, the switch fluorescence ratio worked out at 1.03.

For the sequence TTAAAGGCTA, the switch fluorescence ratio amounted to 1. In the case of AGAGAATCAT, the switch fluorescence ratio amounted to 0.997. Then CGTTCTATTA, with 0.988; and CCAGGAAATG, with 1.04.

As to CTAGTCTCTG, the switch fluorescence ratio worked out at 0.993. Then GGTAACTGGT, with 1; and GCGCGATTTA, with 0.993; and TTGGGCGTAG, with 0.999. Regarding AGTAATTTCT, the switch fluorescence ratio turned out to be 0.984. Regarding TTCTACCGGA, the switch fluorescence ratio was found to be 0.996. Turning to TCGGGACAGC, the switch fluorescence ratio is 1.07.

As to CCCTAAATAT, the switch fluorescence ratio came out at 1.1. AATGAATGAT: the switch fluorescence ratio turned out to be 1.03.

For the sequence GGAGATGGTT, the switch fluorescence ratio stood at 1.02.

AGCTGCACTT: the switch fluorescence ratio amounted to 1.01. As for GATGCTAGCC, the switch fluorescence ratio turned out to be 1.08. For the sequence TAAATCATAA, the switch fluorescence ratio amounted to 0.969. ATGTCGACGG: the switch fluorescence ratio came to 1.03. As to CGTATGACCA, the switch fluorescence ratio is 0.993. Take GCACGAATAA: the switch fluorescence ratio amounted to 1.06. On to TGATAACTAG, for which the switch fluorescence ratio amounted to 0.96. Turning to CACTTGGTTC, the switch fluorescence ratio was 0.994. On to GCGAATGTAG, for which the switch fluorescence ratio was 1.

In the case of TAGCTACAAA, the switch fluorescence ratio turned out to be 1.09. GCTAACTCGT: the switch fluorescence ratio is 1.04. Under ATGTTGCGAC stands 1.05; under TCTGATCGCT, 1.69. With AGGCGCAAGG, the switch fluorescence ratio came to 1.08.

On to TAACCTTTTG, for which the switch fluorescence ratio worked out at 1.06. Turning to ATTAGGCTA, the switch fluorescence ratio is 1.02. Then GTTCTTTGCC, with 1.01. Then GCGATACGT, with 2.56; and TTTATGTTC, with 0.996; and GGTCCAATGT, with 0.934. In the case of AGAATTCGCA, the switch fluorescence ratio is 1.02. Under CATACCGTAC stands 1.93. Regarding TCTACTTGAC, the switch fluorescence ratio came to 1.33. Take GAACGTGATG: the switch fluorescence ratio is 1.01.

For ATGTTGTCAA, the switch fluorescence ratio is 0.997. Then GCGGTTAATA, with 1; and TTTAGGGTAG, with 0.972; and CAGCGCAGGG, with 1.12. Then TCGGACCAAT, with 1.89; and GTACCCAGGT, with 1.07.

In the case of TACTCTGTTT, the switch fluorescence ratio is 1.06. As to CGTTTCGACG, the switch fluorescence ratio was found to be 1.01.

With ATTTTGGCTG, the switch fluorescence ratio was 1. TAGCCCGTCA: the switch fluorescence ratio is 1.06. Under GATTGATATA stands 1. In the case of CCAAACTCAC, the switch fluorescence ratio worked out at 1.21. For the sequence AGCGAATTTA, the switch fluorescence ratio turned out to be 1.02. Under TTAAAATCTA stands 1.03. Under AGATAGCCGA stands 0.973; under TATGGGGTCC, 1.02; under TTGCTGCTTG, 0.988. Consider TGCTCTAAGC, for which the switch fluorescence ratio stood at 1. On to GACGGATTTT, for which the switch fluorescence ratio stood at 0.978. Regarding GATGATAACT, the switch fluorescence ratio was determined as 0.97.

For CTCAGATTGA, the switch fluorescence ratio was 0.951. In the case of TTAGACCGTC, the switch fluorescence ratio was found to be 0.969. Take ATTGGCGAAG: the switch fluorescence ratio stood at 0.995.

Consider TCTCTGATT, for which the switch fluorescence ratio is 1.03. Turning to GATTTCAGTA, the switch fluorescence ratio was found to be 0.98. GAATATTAAT: the switch fluorescence ratio worked out at 1.01. ATCAGTGGCC: the switch fluorescence ratio is 1.01. TCTTTTTCAA: the switch fluorescence ratio was 1.04. Consider GTTACCAGTA, for which the switch fluorescence ratio amounted to 0.967. Under GGCACCTGG stands 0.962; under ATAATGCCG, 0.962; under ATAGAGTGA, 1.

With CTATCAGTAG, the switch fluorescence ratio turned out to be 0.986.

In the case of TGCTCCACAC, the switch fluorescence ratio turned out to be 2.19. For CTAGGAACGT, the switch fluorescence ratio was 0.995. Then ATGGTGACAG, with 0.97. For TGTGCTTAAC, the switch fluorescence ratio was determined as 0.989. As for AGAGTTCTG, the switch fluorescence ratio was 0.953. Regarding GTCACGCACT, the switch fluorescence ratio amounted to 1.9. Turning to TCGAATAATC, the switch fluorescence ratio is 1.04. Regarding TGTTTTATTA, the switch fluorescence ratio turned out to be 0.991.

For AGGTGACCAG, the switch fluorescence ratio is 1.07. On to TTAGATGCGT, for which the switch fluorescence ratio worked out at 0.973. Under AGGCTTGGTA stands 0.935; under TGCCGGGATT, 0.991; under GCACGCTTCT, 1.04. On to CTTATTCTTA, for which the switch fluorescence ratio worked out at 1.02. For ACTAAAGTCG, the switch fluorescence ratio amounted to 1.05. Then CTTATTAAG, with 0.98; and TTAGGCTCGG, with 1.02. As for ATAAACATTT, the switch fluorescence ratio was found to be 1.01. In the case of TGATCTTCCA, the switch fluorescence ratio came out at 1.01.

With AAATCTCTA, the switch fluorescence ratio came to 1.03. For the sequence ACTGGGGGA, the switch fluorescence ratio is 0.978. For TGATCATTCA, the switch fluorescence ratio turned out to be 1.02. Under GGGTGCTTAG stands 1.06.

For the origin of these results see the supplement of paper PMC10126150.
